Results as given in article PMC6919601, “Identification of Plasmodium dipeptidyl aminopeptidase allosteric inhibitors by high throughput screening” (PLoS ONE, 2019).
Out of some 110,000 compounds screened, about 230 (0.21%) showed an effect of 50% or more. The list shows a part of the results.

Each compound was assayed against DPAP1 (Plasmodium falciparum, UniProt Q8IIJ9) (assay: primary screen, percent inhibition; read by cleavage of a fluorogenic dipeptide substrate; higher = more effect of the substance).
Parameters: species or system P. falciparum D10 trophozoite lysates; single well
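Further: 30 min substrate incubation versus DMSO and 10 µM JCP410 controls.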

Sequence of DPAP1 (Q8IIJ9 whole entry, looked up): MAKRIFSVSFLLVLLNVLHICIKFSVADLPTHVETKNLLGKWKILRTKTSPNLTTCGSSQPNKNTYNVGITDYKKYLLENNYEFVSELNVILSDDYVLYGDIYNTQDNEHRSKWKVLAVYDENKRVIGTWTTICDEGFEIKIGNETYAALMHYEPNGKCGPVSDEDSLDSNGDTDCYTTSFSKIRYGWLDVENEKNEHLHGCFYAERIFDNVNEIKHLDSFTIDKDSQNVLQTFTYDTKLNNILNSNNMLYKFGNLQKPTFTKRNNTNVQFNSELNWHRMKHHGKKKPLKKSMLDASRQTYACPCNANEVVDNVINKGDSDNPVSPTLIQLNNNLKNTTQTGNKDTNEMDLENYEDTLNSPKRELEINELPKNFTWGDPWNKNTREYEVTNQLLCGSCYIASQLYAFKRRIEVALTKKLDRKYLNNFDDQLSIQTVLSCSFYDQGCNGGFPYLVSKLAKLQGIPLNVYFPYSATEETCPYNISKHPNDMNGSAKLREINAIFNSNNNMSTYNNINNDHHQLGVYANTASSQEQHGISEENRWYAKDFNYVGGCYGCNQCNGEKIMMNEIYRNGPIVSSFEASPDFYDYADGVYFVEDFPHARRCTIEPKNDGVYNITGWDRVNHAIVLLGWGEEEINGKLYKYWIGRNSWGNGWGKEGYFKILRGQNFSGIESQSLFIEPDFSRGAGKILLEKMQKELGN

Row | SMILES | % Inhibition @ 10 uM
1 | CS(=O)(=O)N1CCc2cc(C(=O)Nc3ccc(Cl)cc3)ccc21 | 1.8%
2 | Cc1noc(NS(=O)(=O)c2ccc(NC(=O)C(C)C)cc2)c1C | -3.19%
3 | Cn1cc(NC(=O)NCCN2CCCC2)c2ccccc2c1=O | 4.2%
4 | O=C(Nc1cc(Cl)cc(Cl)c1)c1ccc(Cl)cc1Cl | 1.91%
5 | Oc1cccc2ccc(/C=C/c3ccc(Br)o3)nc12 | -2.87%
6 | N#CC1=C(N)OC2=C(C(=O)CCC2)C1c1ccc(F)cc1 (stereo not shown) | 3.16%
7 | CC(C(=O)N1CCCc2c1c(=O)oc1ccc(OCc3ccccc3)cc21)N1CCCCCC1 (stereo not shown) | -3.51%
8 | CC(=O)c1sc2nc(-c3ccc(Cl)cc3)cn2c1C | 1.47%
9 | O=C(C1c2ccccc2Oc2ccccc21)N1CCc2ccccc21 | 0.214%
10 | Cc1nn(-c2ccccc2)c(C)c1/C=N/n1cnnc1 | -8.43%
11 | CCOc1cc(/C=C2/NC(=O)N(Cc3ccccc3F)C2=O)cc(Cl)c1O | -0.62%
12 | CN1CCN(C(=O)CCc2ccccc2)CC1 | -3.63%
13 | COc1ccc(OC)c(CN2CCC(O)CC2)c1 | -1.38%
14 | O=C(c1ccccc1Br)N1CCN(c2cccc(Cl)c2)CC1 | -3.04%
15 | CCOc1ccc(C)cc1-n1nc2ccccc2n1 | 2.57%
16 | CS(=O)(=O)N(Cc1ccccc1Cl)c1ccc(C(=O)NCc2ccccn2)cc1 | -25.2%
17 | COc1ccc(/C=C/C(=O)c2ccc3ccccc3c2O)cc1 | 3.72%
18 | CCCCN1C(=O)C(Cl)=C(Cl)C1NC(=O)c1ccccc1 (stereo not shown) | -9.05%
19 | Cc1ccc(O)c(C2=NN3C(C2)c2cc(Cl)ccc2OC3c2ccncc2)c1 (stereo not shown) | 1.76%
20 | c1ccc(CCSc2nc3ccccc3[nH]2)cc1 | -1.81%
21 | CCOC(=O)N1CCC(NC(=O)CSCc2nc(-c3sccc3C)oc2C)CC1 | -4.71%
22 | COc1cc(-c2ccccc2)nc(N)n1 | 5.09%
23 | COc1ccc(C2=CC(=O)OC(C)(c3ccccc3)O2)cc1 (stereo not shown) | 3.6%
24 | Nc1c(C(=O)NCCc2ccc(S(N)(=O)=O)cc2)sc2nc3c(cc12)CCCC3 | -2.37%
25 | Cc1ccccc1OCC(=O)Nc1sc2c(c1C(N)=O)CCCC2 | -3.37%
26 | CCCNC(=O)CCn1c(=O)c2cccn2c2cccnc21 | -3.61%

Row | SMILES | % Inhibition @ 10 uM
27 | COc1ccc(CN2CCN(Cc3ccccc3Cl)CC2)cc1OC | 3.12%
28 | CCCOc1ccc(C2CC(=O)NC3=C2C(=O)CC(c2ccc(F)cc2)C3)cc1 (stereo not shown) | 0.205%
29 | Cc1onc(-c2ccccc2)c1C(=O)N1CC(C)N(C(=O)c2c(-c3ccccc3)noc2C)CC1C (stereo not shown) | 1.28%
30 | CCN(CC)CCNC(=O)c1ccc2c(c1)sc1nc(-c3ccccc3)cn12 | 1.92%
31 | CC(Cc1ccccc1)N1CCC(=O)C2=C1CCC2 (stereo not shown) | 4.26%
32 | COc1ccccc1NC(=O)C1CCC(C)(C(=O)O)C1(C)C (stereo not shown) | 5%
33 | CCOC(=O)c1ccc(NC(=O)C2CCC(C)CC2)cc1 (stereo not shown) | -0.0953%
34 | CC(C)=CCCC1=CCC2(COC(c3cccnc3)OC2)C(C)C1 (stereo not shown) | -2.47%
35 | O=C1c2ccccc2C(=O)N1CCCC(=O)N1CCc2ccccc21 | 3.34%
36 | Cc1ccc(C2=NC(=O)C(c3c[nH]c4ccccc34)N(C(=O)c3ccccc3)N2)cc1 (stereo not shown) | 4.37%
37 | Cc1nn(CC(=O)NCCCN2CCOCC2)c(=O)c2cc3cc(F)ccc3n12 | -1.7%
38 | O=C(O)CCCN1C(=O)C(O)=C(C(=O)c2ccc(Cl)cc2)C1c1ccccc1F (stereo not shown) | -0.545%
39 | CCc1c(O)cc2cc(OC)c(OC)cc2c1NCc1ccccc1 | 3.15%
40 | CCOc1ccc(/C=c2\sc3nc(-c4cccs4)nn3c2=O)cc1OC | 3.54%
41 | Cc1nc(CCNC(=O)c2ccc(F)c(F)c2)cs1 | -0.72%
42 | Cc1ccc(CCC(=O)Nc2ccccc2)o1 | -11.7%
43 | CCOc1cc(C2c3c(oc4ccc(C)cc4c3=O)C(=O)N2Cc2ccc(F)cc2)ccc1O (stereo not shown) | 0.415%
44 | Cc1ccccc1Cn1c(=O)n(Cc2ccc3c(c2)OCO3)c(=O)c2cccnc21 | 1.72%
45 | CCS(=O)(=O)c1nc2ccccc2n1CC(N)=O | 2.31%
46 | Cc1cc2nc(Nc3nc(C)c(C)c(O)n3)nc(C)c2cc1C | -0.173%
47 | Cc1cc(Cl)ccc1N(CC(=O)Nc1ccc(C(C)C)cc1)S(C)(=O)=O | 3.83%
48 | CCOC(=O)c1ccc2nc(C(F)(F)F)nc(NCCc3ccc(OC)c(OC)c3)c2c1 | 2.31%
49 | c1ccc(C2CCc3ccccc3O2)cc1 (stereo not shown) | 1.02%
50 | Nc1ccc(C(=O)c2cccs2)cc1[N+](=O)[O-] | 0.0345%
51 | O=[N+]([O-])c1ccc(-c2cc3ccccn3c2)cc1 | -0.128%
52 | O=C(Nc1cccc([N+](=O)[O-])c1)N(O)c1cccc(Cl)c1 | 0.989%
